In patent publication US20250382344A1, “Soluble GLP1/GIP/NPY2 Receptor Triple Agonists” (Boehringer Ingelheim International GmH, priority 2024, published 2025):
Where two headings read alike, the source gives them in different places. For some of these results: Part of at least one peptide drawing is inferred or uncertain, most often the ends. At least one structure is not confirmed: it was looked up by name or label, or the drawing left a doubt.

What was measured:
Assay type in all cases: cell-based
hNPY2R = molecular target: T1, hNPY2R (Homo sapiens, UniProt P49146); test: hNPY2R CreLuc assay in 0.5% and 100% plasma (HEK-293 CRE-luciferase reporter cells); settings: 0.5% human plasma, HEK-293 reporter cells, read-out: hNPY2R 0.5% hP
T1 construct: expressed in transfected cells; host or cells: HEK-293 CRE-luciferase reporter cells
T1 sequence (P49146 1-381): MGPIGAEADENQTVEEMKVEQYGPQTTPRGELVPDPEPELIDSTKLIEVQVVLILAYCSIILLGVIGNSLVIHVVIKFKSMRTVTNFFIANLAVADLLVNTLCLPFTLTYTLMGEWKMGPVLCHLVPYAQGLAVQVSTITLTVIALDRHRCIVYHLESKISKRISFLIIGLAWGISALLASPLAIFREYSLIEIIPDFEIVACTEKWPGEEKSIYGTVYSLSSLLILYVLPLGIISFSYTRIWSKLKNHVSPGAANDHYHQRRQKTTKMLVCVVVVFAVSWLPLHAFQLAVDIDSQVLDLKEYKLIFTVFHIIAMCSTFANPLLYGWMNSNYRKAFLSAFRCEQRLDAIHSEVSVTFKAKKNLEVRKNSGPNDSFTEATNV
From the text: (§1) CHO and HEK-293 recombinant cell lines express a luciferase reporter gene under control of the CAMP responsive element (CRE). As a second recombinant protein the GLP-1 and NPY2 receptors were expressed in the reporter gene HEK cells, and the GIP receptor was expressed in the reporter gene CHO cells, respectively. Stimulation of these recombinant cells with an agonist leads to an increase of intracellular CAMP levels. In the presence of CAMP, the transcription factor CRE binding protein (CREB) binds to the CRE and to the CREB binding protein (CBP), which leads to transcription of the luciferase reporter gene. Peptides upon serial-dilution in 100% DMSO were transferred into 384-well assay plates with 5 μl pre-dispensed assay buffer (1×HBSS, 20 mM HEPES, pH7.4 supplemented with 0.5% human plasma) using acoustic dispensing on a Labcyte ECHO. Cryo-preserved transgenic reporter gene cells were thawed in assay buffer. 20 μl (10.000 cells/well) were added to the plate with the peptides and incubated for 4 hours at 37° C. in a humidified incubator. Following incubation, assay plates are equilibrated to room temperature, followed by addition of 25 μl of Bright-Glo™ Luciferase reagent, incubation at room temperature for 10 minutes and analysis of luminescence (Envision Reader). […] EC50 values were calculated by non-linear regression using sigmoid concentration-response with variable slope.
(§2) The same assays were run in the presence of 100% plasma with no additional buffer constituents.

hGIPR = molecular target: T2, hGIPR (Homo sapiens, UniProt P48546); test: hGIPR CreLuc assay in 0.5% and 100% plasma (CHO CRE-luciferase reporter cells); settings: 0.5% human plasma, read-out: hGIPR 0.5% hP
T2 construct: expressed in transfected cells; host or cells: CHO CRE-luciferase reporter cells
T2 sequence (P48546 22-466): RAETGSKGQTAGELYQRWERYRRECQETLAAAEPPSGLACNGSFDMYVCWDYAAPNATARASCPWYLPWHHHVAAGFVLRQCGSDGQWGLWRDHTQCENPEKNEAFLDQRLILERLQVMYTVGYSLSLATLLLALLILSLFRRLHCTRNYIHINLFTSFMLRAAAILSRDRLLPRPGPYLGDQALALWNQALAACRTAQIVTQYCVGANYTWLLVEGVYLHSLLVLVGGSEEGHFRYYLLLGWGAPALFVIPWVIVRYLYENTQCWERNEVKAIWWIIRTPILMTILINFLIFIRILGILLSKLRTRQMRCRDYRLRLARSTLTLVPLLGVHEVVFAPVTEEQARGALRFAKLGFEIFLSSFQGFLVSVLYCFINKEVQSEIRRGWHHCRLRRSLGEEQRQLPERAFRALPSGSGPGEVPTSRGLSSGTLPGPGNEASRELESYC
From the text: as §1, §2

hGLP1R = molecular target: T3, hGLP1R (Homo sapiens, UniProt P43220); test: hGLP1R CreLuc assay in 0.5% and 100% plasma (HEK-293 CRE-luciferase reporter cells); settings: HEK-293 reporter cells
T3 construct: expressed in transfected cells; host or cells: HEK-293 CRE-luciferase reporter cells
From the text: as §1, §2

[1] = 0.5% human plasma, read-out: hGLP1R 0.5% hP
[2] = 100% human plasma, read-out: hGLP1R 100% hP

T3 sequence (P43220 24-463): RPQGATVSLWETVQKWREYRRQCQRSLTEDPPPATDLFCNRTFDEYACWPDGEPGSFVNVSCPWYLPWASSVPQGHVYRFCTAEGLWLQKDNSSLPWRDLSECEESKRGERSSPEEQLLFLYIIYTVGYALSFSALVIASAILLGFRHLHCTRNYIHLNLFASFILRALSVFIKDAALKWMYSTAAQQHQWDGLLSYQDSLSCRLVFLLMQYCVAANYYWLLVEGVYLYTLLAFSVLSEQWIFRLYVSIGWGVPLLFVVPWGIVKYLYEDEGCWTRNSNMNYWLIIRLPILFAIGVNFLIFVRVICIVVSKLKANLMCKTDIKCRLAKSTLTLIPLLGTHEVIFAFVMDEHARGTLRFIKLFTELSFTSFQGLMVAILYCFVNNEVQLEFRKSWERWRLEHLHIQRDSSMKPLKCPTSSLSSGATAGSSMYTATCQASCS

| Structure (SMILES) | EC50 (hNPY2R) [nM] | EC50 (hGIPR) [nM] | EC50 (hGLP1R; [1]) [nM] | EC50 (hGLP1R; [2]) [nM] |
| --- | --- | --- | --- | --- |
| CC[C@H](C)[C@H](NC(=O)[C@H](Cc1ccccc1)NC(=O)[C@H](C)NC(=O)C(C)(C)NC(=O)[C@H](CCC(N)=O)NC(=O)[C@H](C)NC(=O)[C@H](CCC(N)=O)NC(=O)[C@H](CCCCN)NC(=O)[C@H](CC(=O)O)NC(=O)[C@H](CC(C)C)NC(=O)[C@](C)(CC(C)C)NC(=O)[C@@H](NC(=O)[C@H](CO)NC(=O)[C@H](Cc1ccc(O)cc1)NC(=O)[C@H](CC(=O)O)NC(=O)[C@H](CO)NC(=O)[C@@H](NC(=O)[C@H](Cc1ccccc1)NC(=O)[C@@H](NC(=O)CNC(=O)[C@H](CCC(=O)O)NC(=O)C(C)(C)NC(=O)[C@@H](N)Cc1ccc(O)cc1)[C@@H](C)O)[C@@H](C)O)[C@@H](C)CC)C(=O)N[C@@H](CCCNC(=N)N)C(=O)N[C@@H](Cc1c[nH]cn1)C(=O)N[C@@H](CC(C)C)C(=O)N[C@H](C(=O)N[C@@H](CC(N)=O)C(=O)N[C@@H](CCCCNC(=O)[C@@H](N)CCCCNC(=O)CC[C@H](NC(=O)CC[C@H](NC(=O)CC[C@H](NC(=O)[C@H](CCC(=O)O)NC(=O)CC[C@H](NC(=O)CC[C@H](NC(=O)CCCCCCCCCCCCCCCCCCC(=O)O)C(=O)O)C(=O)O)C(=O)O)C(=O)O)C(=O)O)C(=O)NC(C)(C)C(=O)N[C@H](C(=O)N[C@@H](CCCNC(=N)N)C(=O)N[C@@H](CCC(N)=O)C(=O)N[C@@H](CCCNC(=N)N)C(=O)N[C@@H](Cc1ccc(O)cc1)C(N)=O)[C@@H](C)O)[C@@H](C)CC [Compound 22, Y-Aib-E-G-T-F-T-S-D-Y-S-I-aMeL-L-D-K-Q-A-Q-Aib-A-F-I-R-H-L-I-N-K(1,3)-Aib-T-R-Q-R-Y-NH2.C20DA-gGlu-gGlu-gGlu-gGlu-Glu-gGlu-eLys(1,2)] | 8.8 | 0.1 | 0.2 | 0.6 |
| CC[C@H](C)[C@H](NC(=O)[C@H](CC(C)C)NC(=O)[C@H](Cc1c[nH]cn1)NC(=O)[C@H](CCCNC(=N)N)NC(=O)[C@@H](NC(=O)[C@H](Cc1ccccc1)NC(=O)[C@H](C)NC(=O)C(C)(C)NC(=O)[C@H](CCC(N)=O)NC(=O)[C@H](C)NC(=O)[C@H](CCC(N)=O)NC(=O)[C@H](CCC(=O)O)NC(=O)[C@H](CC(=O)O)NC(=O)[C@H](CC(C)C)NC(=O)C(C)(C)NC(=O)[C@@H](NC(=O)[C@H](CO)NC(=O)[C@H](Cc1ccc(O)cc1)NC(=O)[C@H](CC(=O)O)NC(=O)[C@H](CO)NC(=O)[C@@H](NC(=O)[C@H](Cc1ccccc1)NC(=O)[C@@H](NC(=O)CNC(=O)[C@H](CCC(=O)O)NC(=O)C(C)(C)NC(=O)[C@@H](N)Cc1ccc(O)cc1)[C@@H](C)O)[C@@H](C)O)[C@@H](C)CC)C(C)C)C(=O)N[C@@H](CC(N)=O)C(=O)N[C@@H](CCCCNC(=O)[C@@H](N)CCCCNC(=O)CC[C@H](NC(=O)[C@H](CCC(=O)O)NC(=O)CC[C@H](NC(=O)CC[C@H](NC(=O)CC[C@H](NC(=O)CC[C@H](NC(=O)CCCCCCCCCCCCCCCCC(=O)O)C(=O)O)C(=O)O)C(=O)O)C(=O)O)C(=O)O)C(=O)NC(C)(C)C(=O)N[C@H](C(=O)N[C@@H](CCCNC(=N)N)C(=O)N[C@@H](CCC(N)=O)C(=O)N[C@@H](CCCNC(=N)N)C(=O)N[C@@H](Cc1ccc(O)cc1)C(N)=O)[C@@H](C)O [Compound 40, Y-Aib-E-G-T-F-T-S-D-Y-S-I-Aib-L-D-E-Q-A-Q-Aib-A-F-V-R-H-L-I-N-K(1,3)-Aib-T-R-Q-R-Y-NH2.C18DA-gGlu-gGlu-gGlu-gGlu-gGlu-gGlu-eLys(1,2)] | 16.2 | 0.3 | 0.3 | – |
| CC[C@H](C)[C@H](NC(=O)[C@H](CC(C)C)NC(=O)[C@H](Cc1c[nH]cn1)NC(=O)[C@H](CCCNC(=N)N)NC(=O)[C@@H](NC(=O)[C@H](Cc1ccccc1)NC(=O)[C@H](C)NC(=O)C(C)(C)NC(=O)[C@H](CCC(N)=O)NC(=O)[C@H](C)NC(=O)[C@H](CCC(N)=O)NC(=O)[C@H](CCCCN)NC(=O)[C@H](CC(=O)O)NC(=O)[C@H](CC(C)C)NC(=O)C(C)(C)NC(=O)[C@@H](NC(=O)[C@H](CO)NC(=O)[C@H](Cc1ccc(O)cc1)NC(=O)[C@H](CC(=O)O)NC(=O)[C@H](CO)NC(=O)[C@@H](NC(=O)[C@H](Cc1ccccc1)NC(=O)[C@@H](NC(=O)CNC(=O)[C@H](CCC(=O)O)NC(=O)C(C)(C)NC(=O)[C@@H](N)Cc1ccc(O)cc1)[C@@H](C)O)[C@@H](C)O)[C@@H](C)CC)C(C)C)C(=O)N[C@@H](CC(N)=O)C(=O)N[C@@H](CCCCNC(=O)[C@@H](N)CCCCNC(=O)CC[C@H](NC(=O)[C@H](CCC(=O)O)NC(=O)CC[C@H](NC(=O)CC[C@H](NC(=O)CC[C@H](NC(=O)CC[C@H](NC(=O)CCCCCCCCCCCCCCCCCCC(=O)O)C(=O)O)C(=O)O)C(=O)O)C(=O)O)C(=O)O)C(=O)NC(C)(C)C(=O)N[C@H](C(=O)N[C@@H](CCCNC(=N)N)C(=O)N[C@@H](CCC(N)=O)C(=O)N[C@@H](CCCNC(=N)N)C(=O)N[C@@H](Cc1ccc(O)cc1)C(N)=O)[C@@H](C)O [Compound 74, Y-Aib-E-G-T-F-T-S-D-Y-S-I-Aib-L-D-K-Q-A-Q-Aib-A-F-V-R-H-L-I-N-K(1,3)-Aib-T-R-Q-R-Y-NH2.C20DA-gGlu-gGlu-gGlu-gGlu-gGlu-gGlu-eLys(1,2)] | 7.1 | 0.5 | 0.4 | – |
| CC[C@H](C)[C@H](NC(=O)[C@H](CC(C)C)NC(=O)[C@H](Cc1c[nH]cn1)NC(=O)[C@H](CCCNC(=N)N)NC(=O)[C@@H](NC(=O)[C@H](Cc1ccccc1)NC(=O)[C@H](C)NC(=O)C(C)(C)NC(=O)[C@H](CCC(N)=O)NC(=O)[C@H](C)NC(=O)[C@H](CCC(N)=O)NC(=O)[C@H](CCCCN)NC(=O)[C@H](CCC(=O)O)NC(=O)[C@H](CC(C)C)NC(=O)C(C)(C)NC(=O)[C@@H](NC(=O)[C@H](CO)NC(=O)[C@H](Cc1ccc(O)cc1)NC(=O)[C@H](CC(=O)O)NC(=O)[C@H](CO)NC(=O)[C@@H](NC(=O)[C@H](Cc1ccccc1)NC(=O)[C@@H](NC(=O)CNC(=O)[C@H](CCC(=O)O)NC(=O)C(C)(C)NC(=O)[C@@H](N)Cc1ccc(O)cc1)[C@@H](C)O)[C@@H](C)O)[C@@H](C)CC)C(C)C)C(=O)N[C@@H](CC(N)=O)C(=O)N[C@@H](CCCCNC(=O)[C@@H](N)CCNC(=O)CC[C@H](NC(=O)CC[C@H](NC(=O)CC[C@H](NC(=O)CC[C@H](NC(=O)CC[C@H](NC(=O)CC[C@H](NC(=O)CCCCCCCCCCCCCCCCC(=O)O)C(=O)O)C(=O)O)C(=O)O)C(=O)O)C(=O)O)C(=O)O)C(=O)NC(C)(C)C(=O)N[C@H](C(=O)N[C@@H](CCCNC(=N)N)C(=O)N[C@@H](CCC(N)=O)C(=O)N[C@@H](CCCNC(=N)N)C(=O)N[C@@H](Cc1ccc(O)cc1)C(N)=O)[C@@H](C)O [Compound 120, Y-Aib-E-G-T-F-T-S-D-Y-S-I-Aib-L-E-K-Q-A-Q-Aib-A-F-V-R-H-L-I-N-K(1,3)-Aib-T-R-Q-R-Y-NH2.C18DA-gGlu-gGlu-gGlu-gGlu-gGlu-gGlu-gDab(1,2)] | – | 0.3 | 1.7 | 4 |
